Reference: PubChem BioAssay AID1346428 (National Center for Advancing Translational Sciences (NCATS), 2018)
Several values for one entry are separate records, joined by “and”; a condition that tells them apart may be missing. Identical values can stand only once. Among all 48,000 compounds or so, about 1,200 (2.5%) were called active. Another 2% or so got no clear call; they are omitted.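 The calls were made as follows: active = activation of at least 60% and not above a set upper limit (about 1 call in 100 departs from these limits); inconclusive = activation of 40% to 60%, or above that upper limit; inactive = activation under 40%.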 The list shows a part of the results. Some structures have more than one record in an assay (separate samples or runs), and their calls can disagree.

These molecules were tested against Probable G-protein coupled receptor 32 (Homo sapiens) (UniProt O75388) (assay: qHTS for Agonists of Human Resolvin D1 Receptor DRV1). Conditions: CHO-K1 GPR32 beta-arrestin PathHunter luminescence, 90 min; at 76.9 µM; stronger effect = higher value; zero percent set by DMSO-only wells.
Method in brief: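 Cells are plated overnight, treated with compounds in DMSO for 90 minutes at 37 °C, and developed with PathHunter detection reagent for 1 hour before luminescence is read; signal reflects beta-arrestin binding to GPR32 in engineered CHO-K1 cells.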
Also: 0% is about no effect.

Sequence of UniProt O75388 (O75388 whole entry, looked up): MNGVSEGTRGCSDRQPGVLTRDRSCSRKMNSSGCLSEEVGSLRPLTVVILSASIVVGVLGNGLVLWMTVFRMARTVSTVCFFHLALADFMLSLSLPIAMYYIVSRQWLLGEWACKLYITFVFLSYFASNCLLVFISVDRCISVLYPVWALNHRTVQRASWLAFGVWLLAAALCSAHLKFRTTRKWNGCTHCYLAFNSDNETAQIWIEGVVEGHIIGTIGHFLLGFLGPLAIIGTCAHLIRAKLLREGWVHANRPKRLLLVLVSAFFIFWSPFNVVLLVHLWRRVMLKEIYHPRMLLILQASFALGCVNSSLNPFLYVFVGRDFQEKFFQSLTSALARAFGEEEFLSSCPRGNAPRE

activation, 92.5% (active) and -46.1% (inactive):
CCN(CC)C(=S)SSC(=S)N(CC)CC

activation, active:
Cc1nnc(NC(=O)c2nc(S(=O)(=O)Cc3ccccc3)ncc2Cl)s1 81%
CCOc1ccc(CCNC(=O)CN2CCN(Cc3ccc(F)cc3Cl)C2=O)cc1OCC 75.4%

activation, inactive:
Cc1cc(-c2ccc(C)c(S(=O)(=O)NCCc3ccccc3)c2)on1 -12%
COc1cccc(CNC(=O)C2CCN(c3ncnc4c3nc3n4CCCCC3)CC2)c1 -1.86%
O=C(Nc1cc(-c2nc3ccccc3o2)ccc1Cl)c1cc([N+](=O)[O-])ccc1N1CCOCC1 6.14%
CCOc1ccccc1NC(=O)CSc1nc(-c2cccs2)cc(C(F)(F)F)n1 20.2%
COc1ccc(Cl)cc1NC(=O)c1c(NCc2cccs2)sc2c1CCC(C)C2 (centres undefined) 4.27%
CC(C)c1ccc(NC(=O)CSC2=Nc3ccccc3C3=NC(CC(=O)NCCc4ccccc4)C(=O)N23)cc1 (centres undefined) -13.2%
Cc1[nH]c2ccccc2c1SCCNC(=O)c1ccc(F)cc1 -11.5%
Cn1cc(-c2cc3n(n2)CCC(=O)N3CC(=O)NCc2ccccc2)c2ccccc21 -17.5%
COc1ccc(N(C(=O)c2cc(OC)c(OC)c(OC)c2)S(=O)(=O)c2ccc(C)cc2)cc1 -3.45%
Cc1cccc(Cn2c(SCc3ccc(C(=O)NCc4cccs4)cc3)nc3ccncc32)c1 1.33%
Cc1ccccc1C(=O)Nc1ccc2nc(SCC(=O)N(C)c3ccccc3)sc2c1 -1.1%
CN(C)C1(CNC(=O)COc2cccc(Cl)c2)CCCCC1 -5.13%
O=c1cc(N2CCN(c3ccc(F)cc3)CC2)[nH]c(=O)n1-c1cccc(Br)c1 -0.0223%
CC(C)c1ccc(Cc2cnc(NC(=O)c3ccc4c(c3)CC(c3ccccc3)OC4=O)s2)cc1 (centres undefined) 30.5%
Cc1cccc(C(=O)NCc2cn3cccc(C)c3n2)c1 3.09%
Cc1ccnc(NC(c2cc(C)ccc2O)c2ccc3cccnc3c2O)c1 (centres undefined) -10.9%
COc1ccc(-c2cn3c(n2)sc2cc(C(=O)NC4CCCCC4)ccc23)cc1 -2.61%
Cc1ccc(CNC(=O)C2CCN(S(=O)(=O)c3c(C)noc3/C=C/c3ccccc3F)CC2)o1 -19%
COc1ccc(S(=O)(=O)N(C(=O)c2ccncc2)c2ccc3oc(C)c(C(C)=O)c3c2)cc1 12.1%
Cc1ccc(C)c(NC(=O)C(NS(=O)(=O)c2ccc3c(c2)CCC(=O)N3)c2ccccc2)c1 (centres undefined) 7.35%
CC[C@H](C)NC(=O)CCCc1nnc2n(CCC(C)C)c(=O)c3sccc3n12 -4.58%
COc1ccccc1OC(C)C(=O)N1CCN(CCc2ccccn2)CC1 (centres undefined) -1.53%
Cc1ccc(-n2c(=O)c3cccnc3n2CC(=O)Nc2ccccc2C(F)(F)F)cc1C -16.8%
COc1cccc(CNC(=O)C2CCCN(S(=O)(=O)c3cn(C)cn3)C2)c1 (centres undefined) -11.4%
CCC(C)n1c(=N)c(C(=O)NC2CCCCC2)cc2c(=O)n3cc(C)ccc3nc21 (centres undefined) 5.51%
CCOC(=O)C1CCCN(C(=O)Cn2nc(C)n3c(cc4c(OC)cccc43)c2=O)C1 (centres undefined) -14.3%
COc1ccccc1N1CCN(Cc2cc(COC(C)C)c3cccnc3c2O)CC1 -5.87%
CC(C)c1ccc(CNCCSc2nnnn2C)cc1 -2.64%
Cc1ccc(NC(=O)CSc2nc3c(c(=O)[nH]2)CN(Cc2ccc4c(c2)OCO4)CC3)cc1C 27.7%
Cn1c(=O)c2c(SCC(=O)NCc3ccco3)nc(-c3ccccc3Cl)nc2n(C)c1=O -2.03%
CCOC(=O)c1ccc(NC(=O)c2oc3ccc4c(c3c2C)C(=O)CC(C)(CC)O4)cc1 (centres undefined) -2.31%
CCOC(=O)C1CCCN(c2ncnc3c2cnn3-c2ccc(C)c(Cl)c2)C1 (centres undefined) -8.29%
CCOc1ccc(NC(=O)C(C)Sc2nnc3cc(C)c4ccccc4n23)cc1 (centres undefined) 1.99%
CC(=O)Nc1c(C)nn(-c2ccccc2)c1N1CCC(C(=O)Nc2cc(Cl)ccc2C)CC1 -8.79%
CCc1ccccc1NC(=O)c1cc(S(=O)(=O)NCCc2ccc(OC)c(OC)c2)ccc1F -12%
CCCOc1ccc(C2c3c(-c4ccccc4O)n[nH]c3C(=O)N2Cc2ccncc2)cc1OCC (centres undefined) -14.1%
Cc1cccc(NC(=O)C(=O)NCC(c2cccnc2)N2CCOCC2)c1 (centres undefined) 11.1%
O=C(O)[C@@H]1CSCN1 3.43%
C=C[C@@]1(C)CC(=O)[C@]2(O)[C@@]3(C)[C@@H](O)CCC(C)(C)[C@@H]3[C@H](O)[C@H](OC(C)=O)[C@@]2(C)O1 6.82%
COc1ccc(C)cc1NC(=O)C(=O)NCCc1csc(-c2ccc(C)cc2)n1 -8.4%
Cc1ccc(CCNC(=O)C2CCCN(Cc3nc(-c4cccc(Cl)c4)oc3C)C2)cc1 (centres undefined) -5.87%
CCOC(=O)c1c(C)c(C(=O)NCCc2ccc(OC)cc2)c(C)n1C 6.15%
CCc1nn(CC(=O)Nc2cccc(C)c2C)c(=O)c2cc3sccc3n12 -16.3%
Cc1cccc(CNC(=O)c2cnc3sc(N4CCCCC4)nn3c2=O)c1 1.02%
CN(C(=O)CSc1cn(CC(=O)N2CCCCC2)c2ccccc12)c1ccccc1 12.1%
O=C(Cc1ccc(F)cc1)N1CCC(c2nc3c(nnn3Cc3ccc(Cl)cc3)c(=O)[nH]2)CC1 -10.2%
COc1ccc(/C=C/c2nc(C#N)c(N3CCN(c4ccccc4)CC3)o2)cc1OC -10.4%
COc1ccc(-c2noc(C3CC(=O)N(c4cc(C)cc(C)c4)C3)n2)cc1 (centres undefined) -9.24%
CCC(Oc1ccccc1)C(=O)Nc1ccccc1OCc1cc(=O)n2ccccc2n1 (centres undefined) -9.85%
CN1CCN(CCCNC(=O)c2cnn(-c3ccccc3)c2C2CCN(C(=O)OC(C)(C)C)CC2)CC1 -0.177%
CCC(C)NC(=O)c1ccc2c(c1)N(Cc1ccccc1)C(=O)c1ccccc1S2(=O)=O (centres undefined) -78.7%
Cc1ccc2nc(-c3ccccn3)c(Nc3ccc(F)cc3)n2c1 -92.8%
CC1=C(C(=O)Nc2ccc(Cl)cc2)C(C(C)C)n2nc(SCc3cccc(C)c3)nc2N1 (centres undefined) 21.2%
NC(=O)c1cc(S(=O)(=O)NCc2ccccc2)cs1 -9.8%
COc1cccc(-c2nc3c(c(SCc4ccccc4)n2)Cc2c(CO)cnc(C)c2O3)c1 31.4%
C=CCc1c(C)nc2nc(SCC(=O)Nc3ccccc3CC)nn2c1C -12.1%
CN(C(=O)CCNC(=O)Cn1cnc2ccccc2c1=O)c1ccccc1F 5.38%
CCCn1c(=O)n(-c2ccccc2)c(=O)c2sc3ccccc3c21 -4.9%
COC(=O)CN1C(=O)CSc2ccc(S(=O)(=O)Nc3ccc(Cl)cc3C)cc21 -7.72%
CCOC(=O)CSc1nc2cc3c(cc2c(=O)n1CCCC(=O)NCc1ccc2c(c1)OCO2)OCO3 -16.4%
C=Cc1ccc(CSc2nc(-c3ccc(OC)cc3)nc3c2Cc2c(CO)cnc(C)c2O3)cc1 19.5%
CC(C)Cc1nn2c(=O)cc(COC(=O)c3cccc(NC(=O)CCc4ccccc4)c3)nc2s1 -10.5%
Clc1ccc(CCNc2ncnc3c2c(-c2ccccc2)cn3-c2ccccc2)cc1 -38.8%
COc1ccc(C(=O)CN2C(=O)N(c3cc(C)cc(C)c3)S(=O)(=O)c3ccccc32)cc1 -32.2%
COc1ccccc1C(=O)Nc1nc2ccc(S(=O)(=O)N3CCCC3)cc2s1 -21.7%
NCCc1nnc(SCc2ccc(Cl)cc2)o1 -17.5%
COc1ccccc1CNC(=O)Cn1ncc2c(=O)oc3ccc(C)cc3c21 0.341%
CCCCC(=O)Nc1cccc(OCc2cc(=O)n3ccccc3n2)c1 1.71%
COc1cc(C(=O)Nc2cc(C)ccc2OCc2cc(=O)n3cc(C)sc3n2)cc(OC)c1OC 0.112%
Cc1ccccc1CS(=O)(=O)Cc1ccc(C(=O)NCCc2ccccc2)o1 -4.47%
CCOC(=O)c1ccc(Nc2c(-c3ccc(O)cc3)nc3nc[nH]n23)cc1 -21%
COc1ccc(N(C)C(=O)NCc2noc3ccc(C)cc23)c(OC)c1 -12.3%
CCCNC(=O)Nc1cc(C(=O)NCc2cccc(OCC)c2)ccc1N1CCCC1 -23.8%
CC(=O)SC1CC2=CC(=O)CC[C@]2(C)C2CC[C@@]3(C)C(CC[C@@]34CCC(=O)O4)C12 (some centres undefined) -15.6%
Cc1cc(C)c2c(=O)cc(CSCC(=O)Nc3nnc(C)s3)[nH]c2c1 -1.14%
Cc1cccc(NC(=O)C2CCCN(S(=O)(=O)c3c(C)noc3/C=C/N(C)C)C2)c1C (centres undefined) -22.6%
CCC(Sc1nncn2c1cc1sccc12)C(=O)Nc1cccc(OC)c1 (centres undefined) -22.8%
CC(C)(C)C1CCc2nc(NC(=O)Cc3ccc(Cl)cc3)sc2C1 (centres undefined) -35.4%
COc1ccccc1NC(=O)CSCc1cc(=O)c2c(C)cc(C)cc2[nH]1 -11.9%
COc1ccc(C(=O)CCC(=O)Nc2ccccc2C)cc1 -8.4%
C/C(=C(\CCOP(=O)(O)O)SC(=O)c1ccccc1)N(C=O)Cc1cnc(C)nc1N -11.2%
